The values below come from the supplement of paper PMC12297408.

The test system of this experiment is Plasmodium falciparum NF54/iGP1_RE9H ulg8 stage V gametocytes. In words: gametocyte viability (luciferase signal relative to DMSO control) (% of DMSO control); higher = less gametocytocidal activity, active = 50 or less. To be noted: exposure time: 72 h. An outline of the steps: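 Stage V gametocytes of the NF54/iGP1_RE9Hulg8 line (day 12; ~2.5% gametocytemia, 3% hematocrit), in medium containing 0.5% Albumax II, were dispensed into 96-well plates with compounds spotted in nanolitre volumes from 10 mM DMSO stocks, for final concentrations of 10 µM or 1 µM in a single well each. After 72 h at 37 °C, 90 µl from each well was combined with 10 µl D-luciferin (30 mg/ml), and luminescence was measured on an IVIS Lumina II. Viability was expressed against the mean of the DMSO vehicle wells on the same plate.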

Where a name gives a salt, the structure may show the parent alone. About 40 (3%) of roughly 1,300 compounds showed activity. The list shows a part of the results.

With `CN1CCN(C(c2ccccc2)c2ccc(Cl)cc2)CC1` (configuration not stated) [Chlorcyclizine hydrochloride], the gametocyte viability is, setting by setting: (concentration: 1 µM) inactive: 96.9; (concentration: 10 µM) inactive: 91.7.
As for `C[C@@H]1CN(c2c(F)c(N)c3c(=O)c(C(=O)O)cn(C4CC4)c3c2F)C[C@H](C)N1` [Sparfloxacin], the gametocyte viability is, setting by setting: (concentration: 1 µM) inactive: 99.5; (concentration: 10 µM) inactive: 99.4.
Turning to `CC[C@]12CCCN3CCc4c(n(c5ccccc45)C(=O)C1)[C@@H]32` [Eburnamonine (-)], the gametocyte viability (concentration: 1 µM) was inactive: 86 and the gametocyte viability (concentration: 10 µM) was inactive: 80.
Taken in the same sequence, the figures for `CCn1cc(C(=O)O)c(=O)c2cc(F)c(N3CCN(C)CC3)cc21` [Pefloxacine] were inactive: 89.6 and inactive: 88.7.
Taken in the same sequence, the figures for `CCn1cc(C(=O)O)c(=O)c2cc(F)c(N3CCNC(C)C3)c(F)c21` (configuration not stated) [Lomefloxacin hydrochloride] were inactive: 84.7 and inactive: 90.8.
Taken in the same sequence, the figures for `COc1cc(C)nc(-n2nc(C)cc2OC)n1` [Epirizole] were inactive: 89.3 and inactive: 96.
As for `CS(=O)(=O)Nc1ccc([N+](=O)[O-])cc1Oc1ccccc1` [Nimesulide], the gametocyte viability is inactive: 85.9 (concentration: 1 µM) and inactive: 88.3 (concentration: 10 µM).
Turning to `CNC(=C[N+](=O)[O-])NCCSCc1csc(CN(C)C)n1` [Nizatidine], the gametocyte viability reads like this: (concentration: 1 µM) inactive: 87.6; (concentration: 10 µM) inactive: 89.3.
For `C[C@]12C=CC(=O)C=C1CC[C@@H]1[C@@H]2C(=O)C[C@@]2(C)[C@H]1CC[C@]2(O)C(=O)CO` [Prednisone], the gametocyte viability is inactive: 85.1 (concentration: 1 µM) and inactive: 80.3 (concentration: 10 µM).
Taken in the same sequence, the figures for `COc1cc(C)c(/C=C/C(C)=C/C=C/C(C)=C/C(=O)O)c(C)c1C` [Acitretin] were inactive: 89 and inactive: 88.6.
In the case of `CC(C)OC(=O)CCC/C=C\C[C@@H]1[C@@H](CC[C@@H](O)CCc2ccccc2)[C@H](O)C[C@@H]1O` [Latanoprost], the gametocyte viability is inactive: 92.8 (concentration: 1 µM) and inactive: 91.4 (concentration: 10 µM).
Consider `CN(C)CCc1c[nH]c2ccc(C[C@H]3COC(=O)N3)cc12` [Zolmitriptan], for which the gametocyte viability (concentration: 1 µM) is inactive: 83.8 and the gametocyte viability (concentration: 10 µM) is inactive: 81.7.
Taken in the same sequence, the figures for `CN(C)CCC=C1c2ccccc2C=Cc2ccccc21` [Cyclobenzaprine hydrochloride] were inactive: 82.8 and inactive: 84.9.
For `C[N+]1(C)CCC(=C(c2ccccc2)c2ccccc2)CC1` [Diphemanil methylsulfate], the gametocyte viability is, setting by setting: (concentration: 1 µM) inactive: 87; (concentration: 10 µM) inactive: 83.
In the case of `NS(=O)(=O)c1cc2c(cc1Cl)NCNS2(=O)=O` [Hydrochlorothiazide], the gametocyte viability is, setting by setting: (concentration: 1 µM) inactive: 91.9; (concentration: 10 µM) inactive: 97.7.
As to `CNNCc1ccc(C(=O)NC(C)C)cc1` [Procarbazine hydrochloride], the gametocyte viability is inactive: 91.7 (concentration: 1 µM) and inactive: 89.4 (concentration: 10 µM).
Taken in the same sequence, the figures for `O=c1[nH]c(=O)n([C@H]2C[C@H](O)[C@@H](CO)O2)cc1F` [Floxuridine] were inactive: 81.9 and inactive: 88.5.
For the compound `CC(=O)Oc1cc(C(C)C)c(OCCN(C)C)cc1C` [Moxisylyte hydrochoride], the gametocyte viability is inactive: 79.4 (concentration: 1 µM) and inactive: 82.4 (concentration: 10 µM).
`CC(c1cc2ccccc2s1)N(O)C(N)=O` (configuration not stated) [Zileuton]: the gametocyte viability runs as follows: (concentration: 1 µM) inactive: 90.7; (concentration: 10 µM) inactive: 85.3.
`CN(C)CCCOc1nn(Cc2ccccc2)c2ccccc12` [Benzydamine hydrochloride]: the gametocyte viability reads like this: (concentration: 1 µM) inactive: 80; (concentration: 10 µM) inactive: 83.3.
In the case of `C#C[C@]1(O)CC[C@H]2[C@@H]3[C@H](C)CC4=C(CCC(=O)C4)[C@H]3CC[C@@]21C` [Tibolone], the gametocyte viability is inactive: 94.5 (concentration: 1 µM) and inactive: 81.3 (concentration: 10 µM).
As for `CC(=O)OCC(=O)[C@@]1(O)CC[C@H]2[C@@H]3CCC4=CC(=O)C=C[C@]4(C)[C@@]3(F)[C@@H](O)C[C@@]21C` [Isoflupredone acetate], the gametocyte viability by setting is: (concentration: 1 µM) inactive: 87; (concentration: 10 µM) inactive: 86.1.
In the case of `COc1cc(C(=O)N2CCOCC2)cc(OC)c1OC` [Trimetozine], the gametocyte viability is, setting by setting: (concentration: 1 µM) inactive: 81.7; (concentration: 10 µM) inactive: 80.2.
For the compound `COc1cc2nc(N3CCN(C(=O)C4CCCO4)CC3)nc(N)c2cc1OC` (configuration not stated) [Terazosin hydrochloride], the gametocyte viability is, setting by setting: (concentration: 1 µM) inactive: 96.5; (concentration: 10 µM) inactive: 92.6.
For `CC1(O)CCOC(=O)C1` (configuration not stated) [Mevalonic-D, L acid lactone], the gametocyte viability by setting is: (concentration: 1 µM) inactive: 86.7; (concentration: 10 µM) inactive: 93.8.
As to `Nc1ccc(S(=O)(=O)Nc2ccc(Cl)nn2)cc1` [Sulfachloropyridazine], the gametocyte viability is inactive: 82.7 (concentration: 1 µM) and inactive: 87.1 (concentration: 10 µM).
For `O=C(O)Cc1ccc(-c2ccccc2)cc1` [Felbinac], the gametocyte viability (concentration: 1 µM) is inactive: 89.9 and the gametocyte viability (concentration: 10 µM) was inactive: 85.2.
Taken in the same sequence, the figures for `C[C@@H]1C[C@H]2[C@@H]3C[C@H](F)C4=CC(=O)C=C[C@]4(C)[C@@]3(F)[C@@H](O)C[C@]2(C)[C@@]1(O)C(=O)CO` [Flumethasone] were inactive: 86.5 and inactive: 90.2.
Taken in the same sequence, the figures for `O=C(O)c1cn(-c2ccc(F)cc2)c2cc(N3CCNCC3)c(F)cc2c1=O` [Sarafloxacin] were inactive: 89.8 and inactive: 93.3.
In the case of `CN1CCN(C2=Nc3ccccc3Oc3ccc(Cl)cc32)CC1` [Loxapine succinate], the gametocyte viability is inactive: 94 (concentration: 1 µM) and inactive: 87.1 (concentration: 10 µM).
As for `N=C(NCCCCCCNC(=N)NC(=N)Nc1ccc(Cl)cc1)NC(=N)Nc1ccc(Cl)cc1` [Chlorhexidine], the gametocyte viability was inactive: 92.1 (concentration: 1 µM) and active: 1.08 (concentration: 10 µM).
As for `NCc1ccccc1CC(=O)N[C@@H]1C(=O)N2C(C(=O)O)=C(CSc3nnnn3CC(=O)O)CS[C@H]12` [Ceforanide], the gametocyte viability (concentration: 1 µM) is inactive: 93.3 and the gametocyte viability (concentration: 10 µM) was inactive: 93.4.
Taken in the same sequence, the figures for `C[N+]1(C)CCC(OC(=O)C(O)(c2ccccc2)C2CCCC2)C1` (configuration not stated) [Glycopyrrolate] were inactive: 83 and inactive: 87.6.
`N#Cc1ccc(C(c2ccc(C#N)cc2)n2cncn2)cc1` [Letrozole]: the gametocyte viability by setting is: (concentration: 1 µM) inactive: 89.7; (concentration: 10 µM) inactive: 86.5.
Taken in the same sequence, the figures for `Clc1ccc(CCC(Cn2ccnc2)Sc2c(Cl)cccc2Cl)cc1` (configuration not stated) [Butoconazole nitrate] were inactive: 87.9 and inactive: 64.
As to `CC1c2cccc(O)c2C(O)=C2C(=O)C3(O)C(O)=C(C(N)=O)C(=O)C(N(C)C)C3C(O)C21` (configuration not stated) [Doxycycline hydrochloride], the gametocyte viability was inactive: 94.5 (concentration: 1 µM) and inactive: 92.2 (concentration: 10 µM).
Taken in the same sequence, the figures for `CN(C)CCCN1c2ccccc2Sc2ccc(C(F)(F)F)cc21` [Triflupromazine hydrochloride] were inactive: 83.7 and inactive: 81.5.
Regarding `CC(=O)Oc1ccccc1C(=O)Nc1ncc([N+](=O)[O-])s1` [Nitazoxanide], the gametocyte viability is, setting by setting: (concentration: 1 µM) inactive: 83.6; (concentration: 10 µM) inactive: 60.5.
On to `CC(N/C(=N\C#N)Nc1ccncc1)C(C)(C)C` (configuration not stated) [Pinacidil], for which the gametocyte viability (concentration: 1 µM) is inactive: 93.7 and the gametocyte viability (concentration: 10 µM) was inactive: 68.9.
Taken in the same sequence, the figures for `CCCCC(O)c1ccccc1` (configuration not stated) [Fenipentol] were inactive: 82 and inactive: 82.9.
For `CCN(CC)CCOC(=O)C1(C2CCCCC2)CCCCC1` [Dicyclomine hydrochloride], the gametocyte viability (concentration: 1 µM) was inactive: 84.2 and the gametocyte viability (concentration: 10 µM) was inactive: 80.
Taken in the same sequence, the figures for `O=C1c2c(O)cccc2Cc2cccc(O)c21` [Anthralin] were inactive: 89.3 and inactive: 86.9.
For `COc1cc(C(=O)OCCCN2CCCN(CCCOC(=O)c3cc(OC)c(OC)c(OC)c3)CC2)cc(OC)c1OC` [Dilazep dihydrochloride], the gametocyte viability by setting is: (concentration: 1 µM) inactive: 85.4; (concentration: 10 µM) inactive: 94.7.
For `Cc1cn[nH]c1` [Fomepizole], the gametocyte viability was inactive: 81.6 (concentration: 1 µM) and inactive: 85.7 (concentration: 10 µM).
Taken in the same sequence, the figures for `OC(Cn1cncn1)(Cn1cncn1)c1ccc(F)cc1F` [Fluconazole] were inactive: 83.4 and inactive: 86.9.
Taken in the same sequence, the figures for `CCCOc1cc(N)ccc1C(=O)OCCN(CC)CC` [Propoxycaine hydrochloride] were inactive: 95.8 and inactive: 89.7.
Taken in the same sequence, the figures for `NCCc1c[nH]cn1` [Histamine dihydrochloride] were inactive: 90.3 and inactive: 91.8.
`CC[N+](C)(C)c1cccc(O)c1` [Edrophonium chloride]: the gametocyte viability by setting is: (concentration: 1 µM) inactive: 92.2; (concentration: 10 µM) inactive: 97.2.
Regarding `C=CC(N)CCC(=O)O` (configuration not stated) [Vigabatrin], the gametocyte viability (concentration: 1 µM) was inactive: 84.9 and the gametocyte viability (concentration: 10 µM) was inactive: 90.6.
As for `NS(=O)(=O)c1cc(C2(O)NC(=O)c3ccccc32)ccc1Cl` (configuration not stated) [Chlorthalidone], the gametocyte viability reads like this: (concentration: 1 µM) inactive: 86.4; (concentration: 10 µM) inactive: 84.7.
Taken in the same sequence, the figures for `CCN[C@H]1CN(CCCOC)S(=O)(=O)c2sc(S(N)(=O)=O)cc21` [Brinzolamide] were inactive: 85.8 and inactive: 89.1.
For `CC(=O)OCC(=O)[C@@]1(O)CC[C@H]2[C@@H]3CCC4=CC(=O)CC[C@]4(C)[C@H]3[C@@H](O)C[C@@]21C` [Cortisol acetate], the gametocyte viability is, setting by setting: (concentration: 1 µM) inactive: 81.7; (concentration: 10 µM) inactive: 80.4.
As for `Cc1ncc(C[n+]2csc(CCO)c2C)c(N)n1` [Thiamine hydrochloride], the gametocyte viability is inactive: 94 (concentration: 1 µM) and inactive: 89.4 (concentration: 10 µM).
On to `CC(C)c1c(C(=O)Nc2ccccc2)c(-c2ccccc2)c(-c2ccc(F)cc2)n1CC[C@@H](O)C[C@@H](O)CC(=O)O` [Atorvastatin], for which the gametocyte viability was inactive: 84.1 (concentration: 1 µM) and inactive: 64.5 (concentration: 10 µM).
Turning to `CCCCN(CCCC)CCCOC(=O)c1ccc(N)cc1` [Butacaine], the gametocyte viability (concentration: 1 µM) was inactive: 81.8 and the gametocyte viability (concentration: 10 µM) was inactive: 91.1.
Take `Cc1ccc(C(=O)c2ccc(CC(=O)O)n2C)cc1` [Tolmetin sodium salt dihydrate]: the gametocyte viability (concentration: 1 µM) was inactive: 87.3 and the gametocyte viability (concentration: 10 µM) was inactive: 81.2.
Taken in the same sequence, the figures for `COC(=O)Nc1nc2cc(C(=O)c3cccs3)ccc2[nH]1` [Nocodazole] were inactive: 89.3 and inactive: 91.1.
In the case of `CC[N+](C)(CC)CCOC(=O)C1c2ccccc2Oc2ccccc21` [Methantheline bromide], the gametocyte viability was inactive: 83.4 (concentration: 1 µM) and inactive: 83.2 (concentration: 10 µM).
`CC(=O)OCC(=O)[C@@]1(O)CC[C@H]2[C@@H]3CCC4=CC(=O)CC[C@]4(C)[C@@]3(F)[C@@H](O)C[C@@]21C` [Fludrocortisone acetate]: the gametocyte viability was inactive: 79.5 (concentration: 1 µM) and inactive: 75.8 (concentration: 10 µM).
Taken in the same sequence, the figures for `NNCCc1ccccc1` [Phenelzine sulfate] were inactive: 94.3 and inactive: 93.4.
For `CCCc1cc(C(N)=S)ccn1` [Prothionamide], the gametocyte viability by setting is: (concentration: 1 µM) inactive: 93.7; (concentration: 10 µM) inactive: 95.2.
